# Laboratory results reported in PubChem BioAssay AID485297 (National Center for Advancing Translational Sciences (NCATS), 2010).
# The campaign covered roughly 320,000 compounds. About 9,100 (2.8%) were called active. Inconclusive results, whose numbers are uncertain, are shown with a selection of clear calls. The call rests on the fitted dose curve; in most records, active means well fitted activation curve with a large enough effect; inconclusive means small, poorly fitted or top-dose-only effect; inactive means no such curve, though single readings can be large or run the other way. No potency is given beside an inconclusive call; the fits are too rough.
# Assay: qHTS Assay for Rab9 Promoter Activators; further: nearly all actives have a fitted effect of over 60% in size; on activation, negative = inhibition: % of control where 0% means no effect
# Conditions: Huh7 Rab9 promoter-luciferase reporter, luminescence, 24 h; series mostly up to 9.22 µM; activation, negative = inhibition: at the top concentration
# Summary of the method: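 Luminescence read-out: Huh7 cells stably expressing Rab9-luciferase, treated 24 h with compound at 37 °C, then lysed with luciferase reagent for 10 min at ambient before reading.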
# Potency means the concentration at half of the fitted maximal effect; tags describe the fitted curve by direction and shape.
Structure (SMILES),Potency,"activation, negative = inhibition"
COc1ccc(/C(N)=N/OC(=O)C2CCCCC2)cc1,"inconclusive [activator, partial curve]",–
CSc1nc(-c2ccc(Cl)cc2)nn1S(=O)(=O)c1ccccc1,"inconclusive [activator, single point]",–
Cc1cc(C(=O)COc2ncnc3sccc23)c(C)n1C1CC1,"inconclusive [activator, partial curve]",–
CCOC(=O)c1ccc(N2CCOCC2)c(NC(=O)c2nccnc2C(=O)O)c1,–,inactive: 14.5%
Cc1ccc2nc(-c3ccccn3)oc2c1,active: 0.631 µM,–
O=C(N/N=C/c1ccccn1)c1cccc([N+](=O)[O-])c1,–,inactive: 3.77%
CCc1ccc(-c2csc(-c3c[nH]c4ccccc34)n2)cc1,active: 1.12 µM,–
Cc1ccc(CNc2ccc([N+](=O)[O-])cc2C(N)=O)cc1,"inconclusive [activator, single point]",–
Cc1csc(NC(=O)/C=C/c2ccc3c(c2)OCO3)n1,"inconclusive [activator, single point]",–
COC(=O)c1c(-c2ccccc2)csc1NC(=O)c1ccco1,"inconclusive [activator, partial curve]",–
O=C(CN1C(=O)C2C3C=CC(C3)C2C1=O)Nc1ccc(S(=O)(=O)N2CCCCC2)cc1 (stereo not drawn),–,inactive: -7.11%
CN(C)c1ccc(NC(=O)Nc2cccc3ccccc23)cc1,"inconclusive [activator, partial curve]",–
Cc1cc(NCCCn2ccnc2)n2ncc(-c3ccc(Cl)cc3)c2n1,active: 0.562 µM,–
CCc1nc(CN2CCN(c3ccc(C(F)(F)F)cn3)CC2)c(C)[nH]1,–,inactive: -22.4%
C=CCn1c(=O)c2ccccc2n2c(SCc3nc4ccccc4s3)nnc12,"inconclusive [activator, partial curve]",–
Clc1ccc(-c2cnn3c(-c4ccncc4)ccnc23)cc1,active: 0.355 µM,–
Fc1ccccc1NC(=S)NCCc1ccc(Cl)cc1,"inconclusive [activator, single point]",–
COc1ccc(Cl)cc1C(=O)OCC(=O)NC(=O)c1cccn1C,–,inactive: 8.43%
O=C1/C(=C/c2ccccc2)N=C(N2CCOCC2)N1c1cccc(Cl)c1,–,inactive: -9.9%
COc1ccc(-n2nc([N+](=O)[O-])c(=NCCc3ccc(Cl)cc3)n2O)cc1,–,inactive: 7.91%
COc1ccc(C(=O)N(Cc2ccccc2)c2cccc(C)c2)cc1,"inconclusive [activator, single point]",–

Structure (SMILES),Potency,"activation, negative = inhibition"
O=C(Nc1cccc(NC(=O)c2ccc(Cl)cc2)n1)c1ccc(Cl)cc1,–,inactive: -0.928%
Oc1cc(Nc2cccnc2)cc2cccnc12,–,inactive: -33.6%
Cc1cccc(NC(=O)CCc2c(C)nn(-c3ccc(N4CCCCC4)nn3)c2C)c1,"inconclusive [activator, partial curve]",–
CC(SCc1ccccc1)C(=O)Nc1ccc2c(c1)OCO2 (stereo not drawn),"inconclusive [activator, partial curve]",–
CCn1c(SCC(=O)N/N=C/C(C)=C/c2ccco2)nnc1-c1ccccc1,–,inactive: 2.46%
N#CC(=C=[N-])c1nc2ccccc2nc1-[n+]1cccc(NC(=O)c2ccccc2)c1,inactive,–
CC(C)C(c1nnnn1Cc1cccs1)N1CCN(C(=O)c2ccco2)CC1 (stereo not drawn),–,inactive: -20.3%
N#C/C(=C\c1ccc(F)c(Br)c1)C(=O)NC1CC1,active: 3.98 µM,–
COc1ccc(C(=O)OCc2c(F)cccc2Cl)cc1S(=O)(=O)N1CCOCC1,–,inactive: -2.86%
O=C(NCc1ccccc1Cl)NCc1ccccc1Cl,"inconclusive [activator, single point]",–
Cc1ccccc1OCC(=O)N/N=C1\CCOc2c(C)cccc21,"inconclusive [activator, partial curve]",–
Cn1ccnc1SCC(=O)Nc1ccc(Cl)cn1,–,inactive: -1.02%
O=C(CSc1ncccc1-c1nc2ccccc2[nH]1)N1CCc2ccccc21,active: 2.82 µM,–
Cc1ccc2c(CN3CCCCC3CCO)cc(=O)oc2c1 (stereo not drawn),–,inactive: 17%
CCn1ccc(C(=O)Nc2ccccc2SC)n1,active: 4.47 µM,–
Cc1ccc(Nc2nc(-c3sc(C)nc3C)cs2)cc1,–,inactive: 0.0299%
Cc1csc(Nc2ccc(Cl)cc2)n1,"inconclusive [activator, partial curve]",–
Cc1cc(C)c2[nH]c(C(=O)Nc3ccc(F)cc3Br)cc2c1,"inconclusive [activator, partial curve]",–
Cc1cc(C)n2nc(-c3ccc(F)cc3)nc2n1,"inconclusive [activator, partial curve]",–
Cc1cc(C(=O)COC(=O)c2ccc(Cl)c(S(N)(=O)=O)c2)c(C)n1C1CC1,active: 1.78 µM,–
Cc1ccc(-c2nnc(-c3cccnc3)o2)cc1,"inconclusive [activator, partial curve]",–

Structure (SMILES),Potency,"activation, negative = inhibition"
CCCC(=O)N=C1SC2CS(=O)(=O)CC2N1c1ccc(-c2nc3ccc(C)cc3s2)cc1 (stereo not drawn),active: 3.98 µM,–
CN(C)/C=N/C(=S)Nc1ccc(Cl)cc1Cl,"inconclusive [activator, single point]",–
O=C(Nc1ccccc1Cl)OC1CCCCC1,–,inactive: 11%
CCOC(=O)Nc1nnc(-c2ccccc2OC)s1,"inconclusive [activator, partial curve]",–
COc1ccc(-c2cc(=O)n(-c3nc4ccccc4[nH]3)[nH]2)cc1,"inconclusive [activator, single point]",–
CC(=O)N(CCc1ccccc1)Cc1cc2ccc(C)c(C)c2[nH]c1=O,–,inactive: 0.125%
COc1ccc(C2C(=O)c3ccccc3C2=O)cc1,"inconclusive [activator, single point]",–
O=C(Nc1ccc2c(c1)ncn2-c1ccccc1)c1ccco1,"inconclusive [activator, partial curve]",–
COc1ccc(NC(=S)Nc2ccc3nccnc3c2)cc1,–,inactive: 19.9%
COc1ccc(CCNC(=O)/C(C#N)=C2\N=C(NC(=O)c3ccco3)c3ccccc32)cc1,–,inactive: -1.38%
Nc1ccc(S(N)(=O)=O)cc1N,"inconclusive [activator, single point]",–
Clc1ccc(Nc2nc(-c3cccs3)cs2)nc1,active: 3.16 µM,–
Cc1cccc(NC(=O)/C=C/c2cccs2)n1,active: 2.51 µM,–
Cc1cccc(-c2noc(Cc3ccccc3)n2)c1,"inconclusive [activator, single point]",–
Cn1nccc1NC(=O)CSCC(=O)O,–,inactive: -4.05%
O=C(NCc1ccc2c(c1)OCO2)Nc1ccc(F)cc1,"inconclusive [activator, partial curve]",–
COc1ccc(NC(=O)c2cc(-c3ccccc3Cl)no2)cc1,–,inactive: -3.32%
COc1ccc2nc(NC(=O)c3ccccc3O)sc2c1,active: 0.794 µM,–
c1ccc(CCc2nc(-c3ccccn3)no2)cc1,active: 2.24 µM,–
O=C(/C=C/c1ccc(Cl)cc1)N1CCN(c2ccc([N+](=O)[O-])c(N3CCOCC3)c2)CC1,–,inactive: -3.88%
O=C(Cc1cccs1)Nc1nc2ccccc2s1,active: 3.16 µM,–

Structure (SMILES),Potency,"activation, negative = inhibition"
Cc1ccc(SCc2ccc(C(=O)Nc3nccs3)o2)cc1,"inconclusive [activator, single point]",–
C/C(=N\Nc1nccnc1Cl)c1ccc(Br)cc1,–,inactive: 16.6%
COc1ccc2cc(C(=O)NCCc3ccccc3)[nH]c2c1,"inconclusive [activator, single point]",–
CC(=O)NC(Cc1c[nH]c2ccccc12)C(=O)Nc1ccc2c(c1)OCO2 (stereo not drawn),–,inactive: 5.92%
CC(C)c1nnc(NC(=O)c2cccnc2)s1,"inconclusive [activator, single point]",–
COc1ccc(NC(=O)c2onc(C)c2Cl)cc1,active: 3.16 µM,–
CC(=O)Oc1c(Cl)cc(Cl)cc1/C=C/c1ccc2ccccc2n1,"inconclusive [activator, partial curve]",–
Cc1cc(NC(=O)c2cccnc2)ccc1Br,"inconclusive [activator, partial curve]",–
O=C(NCc1ccco1)Nc1ccc(Br)cc1,"inconclusive [activator, partial curve]",–
CCSc1nnc(NC(=O)c2ccc(S(=O)(=O)N(C)C)cc2)s1,"inconclusive [activator, single point]",–
CCS(=O)(=O)c1ccc(Sc2nncn2C)c([N+](=O)[O-])c1,–,inactive: 11.3%
CN(C)c1ccc(NC(=O)CCN2C(=O)c3cccc([N+](=O)[O-])c3C2=O)cc1,–,inactive: 7.69%
CN(C)S(=O)(=O)c1ccc(C(=O)NCCSc2ccccc2)cc1,"inconclusive [activator, partial curve]",–
COc1cnn(-c2ccc(C)cc2)c(=O)c1Br,"inconclusive [activator, partial curve]",–
O=C(O)c1ccc(N/N=C/c2ccc(-c3ccc(Br)cc3)o2)cc1,–,inactive: 18.5%
CCc1nc(SCc2ccc(Cl)cc2)n[nH]1,"inconclusive [activator, single point]",–
Cc1cc(C(=O)Nc2ccccc2)oc1C,active: 2.82 µM,–
N#CCCCSc1ncccc1-c1nc2ccccc2[nH]1,"inconclusive [activator, partial curve]",–
Cc1sc(NC(=O)C2CCCCC2C(=O)O)c(C(N)=O)c1-c1ccc(C(C)C)cc1 (stereo not drawn),"inconclusive [activator, single point]",–
Cn1c(CSc2nc3ccccc3s2)nc2ccccc21,"inconclusive [activator, single point]",–
